The other results are listed elsewhere or left out. At the low end of the ranking, values are background and their order means little.

This experiment relates to MYC (p64) + MAX (p21), in MYC:MAX. Nature of the experiment: protein-binding microarray (anti-MAX antibody). Particulars: PBM: 15 mM Tris-HCl pH 7.5, 100 mM KCl, 0.075% NP40, 7.5 mM beta-mercaptoethanol, 375 ng/ul BSA, 8 ng/ul poly(dA-dT):(dA-dT), 550 ng complex, 60 min, room …; high values mean tight binding; double strand, one strand shown; sequences stand for … in CCGGC…TTAATAGCTAAGATTACTATATCGACG
As to TGATGGACTGTA, the binding signal (log2 normalized fluorescence) is 0.0489.

Take TGATCGGGAGTA: the binding signal (log2 normalized fluorescence) is -0.148.

TGAGCTCCCGTA: the binding signal (log2 normalized fluorescence) stood at 0.0359.

On to TAACACGTTGTA, for which the binding signal (log2 normalized fluorescence) was 0.657.

On to TGAACACACGTA, for which the binding signal (log2 normalized fluorescence) was determined as 0.419.

Turning to TGAGCTCCTGTA, the binding signal (log2 normalized fluorescence) was -0.0311.

Regarding TGATTACAAGTA, the binding signal (log2 normalized fluorescence) is -0.132.

For GGACACGTGGTA, the binding signal (log2 normalized fluorescence) worked out at 0.99.

Consider TGTAGCGTGGTA, for which the binding signal (log2 normalized fluorescence) amounted to 0.575.

With TGAAGCTATGTA, the binding signal (log2 normalized fluorescence) was -0.0292.

For the sequence TGAACCTTCGTA, the binding signal (log2 normalized fluorescence) is 0.116.

Take TGATGTGACGTA: the binding signal (log2 normalized fluorescence) was determined as 0.137.

Turning to TGAGCTGTTGTA, the binding signal (log2 normalized fluorescence) is 0.000703.

As for TGACTCACTGTA, the binding signal (log2 normalized fluorescence) was found to be 0.273.

On to TGATGGATCGTA, for which the binding signal (log2 normalized fluorescence) worked out at 0.179.

For the sequence TGAAGATGCGTA, the binding signal (log2 normalized fluorescence) was 0.239.

Turning to TGAGAATAGGTA, the binding signal (log2 normalized fluorescence) was -0.0885.

For the sequence TGACACATGATA, the binding signal (log2 normalized fluorescence) amounted to 0.672.

Consider TGATCCTCAGTA, for which the binding signal (log2 normalized fluorescence) was 0.0915.

Consider TGATCCCTTGTA, for which the binding signal (log2 normalized fluorescence) is -0.107.

Consider TGGAACGTGGTA, for which the binding signal (log2 normalized fluorescence) was found to be 0.66.

For the sequence TGACACCGCGTA, the binding signal (log2 normalized fluorescence) stood at 0.321.

As to TGATCAGGGGTA, the binding signal (log2 normalized fluorescence) is 0.0821.

For the sequence TGAATTCGCGTA, the binding signal (log2 normalized fluorescence) was determined as 0.0623.

Regarding TGATTCGATGTA, the binding signal (log2 normalized fluorescence) is 0.0201.

Take TGAGCCTCAGTA: the binding signal (log2 normalized fluorescence) is -0.0956.

In the case of TGAGGTTTTGTA, the binding signal (log2 normalized fluorescence) is -0.0971.

As to TGATACGGGGGA, the binding signal (log2 normalized fluorescence) was 0.672.

Take TGACTGCCTGTA: the binding signal (log2 normalized fluorescence) is 0.152.

In the case of AGACTCGTCGTA, the binding signal (log2 normalized fluorescence) is 0.143.

Consider TGACAGGTCGTA, for which the binding signal (log2 normalized fluorescence) is 0.0841.

For the sequence TGAGAAAGGGTA, the binding signal (log2 normalized fluorescence) is -0.082.

For TGAGGTTCAGTA, the binding signal (log2 normalized fluorescence) is -0.0291.

For TGAAATTGCGTA, the binding signal (log2 normalized fluorescence) was 0.115.

Regarding TGACGCGTGGTT, the binding signal (log2 normalized fluorescence) worked out at 0.661.

In the case of TGAAATATAGTA, the binding signal (log2 normalized fluorescence) was -0.0156.

As for TGACCCAGTGTA, the binding signal (log2 normalized fluorescence) amounted to 0.103.

As to TGACTTATCGTA, the binding signal (log2 normalized fluorescence) was -0.0604.

For the sequence TGAGCCTGTGTA, the binding signal (log2 normalized fluorescence) is 0.065.

With TGAACGTCTGTA, the binding signal (log2 normalized fluorescence) came to 0.123.

As to TGAGTTCTGGTA, the binding signal (log2 normalized fluorescence) was -0.132.

Consider TGAGAGTACGTA, for which the binding signal (log2 normalized fluorescence) stood at 0.142.

Turning to TGAGAGGTGTTA, the binding signal (log2 normalized fluorescence) is 0.194.

With TGACTCGAAGTA, the binding signal (log2 normalized fluorescence) was 0.0717.

As for TGAACCATCGTA, the binding signal (log2 normalized fluorescence) amounted to 0.111.

In the case of TGAAGTGGCGTA, the binding signal (log2 normalized fluorescence) worked out at 0.0262.

For the sequence TGAACTCTTGTA, the binding signal (log2 normalized fluorescence) turned out to be 0.0117.

As to TGACTTTCAGTA, the binding signal (log2 normalized fluorescence) was 0.00299.

Take TGACGACCGGTA: the binding signal (log2 normalized fluorescence) came to 0.189.

For the sequence TGATGCCGCGTA, the binding signal (log2 normalized fluorescence) is 0.213.

As for GTTCAGCAAAAA, the binding signal (log2 normalized fluorescence) is 0.0818.

As for TGAGTCAGTGTA, the binding signal (log2 normalized fluorescence) was -0.00919.

TGAGACTTGGTA: the binding signal (log2 normalized fluorescence) is -0.113.

As to TGACCCTAGGTA, the binding signal (log2 normalized fluorescence) was found to be 0.0102.

For TGACCCACGGTA, the binding signal (log2 normalized fluorescence) came to 0.324.

For the sequence TGAAGCGTGGTA, the binding signal (log2 normalized fluorescence) amounted to 0.493.

Turning to TGAGGAGACGTA, the binding signal (log2 normalized fluorescence) was -0.254.

TGAACACGTGTA: the binding signal (log2 normalized fluorescence) turned out to be 0.823.

Turning to TGAATCGCAGTA, the binding signal (log2 normalized fluorescence) turned out to be 0.0744.

For the sequence TGACTGGCCGTA, the binding signal (log2 normalized fluorescence) was -0.101.

Consider TGAAACTTAGTA, for which the binding signal (log2 normalized fluorescence) is -0.0447.

Take TGACCACCGGTA: the binding signal (log2 normalized fluorescence) worked out at 0.242.

Take TGACTGTCGGTA: the binding signal (log2 normalized fluorescence) is -0.00785.

Take TGAACACTCGTA: the binding signal (log2 normalized fluorescence) turned out to be 0.367.

Turning to TGAGGTACAGTA, the binding signal (log2 normalized fluorescence) is -0.153.

As for TGAGTAGTGGTA, the binding signal (log2 normalized fluorescence) was 0.0775.

In the case of TGATAGTCCGTA, the binding signal (log2 normalized fluorescence) is -0.174.

With TGACGTTCGGTA, the binding signal (log2 normalized fluorescence) is 0.0304.

As to GCACACGTGCTA, the binding signal (log2 normalized fluorescence) was 0.875.

As for TGAGTCTGTGTA, the binding signal (log2 normalized fluorescence) is -0.172.

Turning to TGACCTCTAGTA, the binding signal (log2 normalized fluorescence) was found to be 0.121.

Consider TGATATATGGTA, for which the binding signal (log2 normalized fluorescence) stood at 0.0426.

For the sequence TGACACGGCTTA, the binding signal (log2 normalized fluorescence) was 0.363.

On to TGCCACGCGGTG, for which the binding signal (log2 normalized fluorescence) was found to be 0.624.

As to TGATTGAGTGTA, the binding signal (log2 normalized fluorescence) was determined as 0.0168.

On to TGACTCATAGTA, for which the binding signal (log2 normalized fluorescence) was found to be 0.0518.

As for TGATGTTCTGTA, the binding signal (log2 normalized fluorescence) was 0.261.

Turning to TGATTATTGGTA, the binding signal (log2 normalized fluorescence) was -0.194.

With TGAAGCCGCGTA, the binding signal (log2 normalized fluorescence) was 0.0198.

Regarding TGACCCCTAGTA, the binding signal (log2 normalized fluorescence) worked out at 0.0218.

For the sequence TGAACCCTAGTA, the binding signal (log2 normalized fluorescence) came out at 0.0504.

For the sequence TGAAGAGGTGTA, the binding signal (log2 normalized fluorescence) stood at 0.118.

TGAAAGTCTGTA: the binding signal (log2 normalized fluorescence) was -0.0281.

With TGACTGCCAGTA, the binding signal (log2 normalized fluorescence) is 0.0238.

In the case of TGACCGGGTGTA, the binding signal (log2 normalized fluorescence) was 0.119.

TGAGCGACAGTA: the binding signal (log2 normalized fluorescence) came out at 0.11.

With TGAATTAAGGTA, the binding signal (log2 normalized fluorescence) is -0.0295.

On to TGAGTTGGGGTA, for which the binding signal (log2 normalized fluorescence) was 0.0302.

For the sequence TTACAGGTAGTA, the binding signal (log2 normalized fluorescence) amounted to 0.156.

Regarding AGATACGTGGTG, the binding signal (log2 normalized fluorescence) amounted to 0.257.

As for TGAGCGATTGTA, the binding signal (log2 normalized fluorescence) was -0.104.

Take TGAATGCTTGTA: the binding signal (log2 normalized fluorescence) came out at 0.233.

For the sequence TGAGGAAAAGTA, the binding signal (log2 normalized fluorescence) was -0.187.

For TGATCCCCCGTA, the binding signal (log2 normalized fluorescence) was 0.0512.

Turning to TGAGCTGCAGTA, the binding signal (log2 normalized fluorescence) is -0.169.

In the case of TGACACGCATTA, the binding signal (log2 normalized fluorescence) came to 0.524.

For TGACCAGCCGTA, the binding signal (log2 normalized fluorescence) stood at 0.12.

Consider TGAGAACACGTA, for which the binding signal (log2 normalized fluorescence) stood at 0.318.

For TGACTAAGTGTA, the binding signal (log2 normalized fluorescence) was -0.0582.

Consider CGACATGTGGTG, for which the binding signal (log2 normalized fluorescence) came out at 0.638.

Regarding TGAACTCTCGTA, the binding signal (log2 normalized fluorescence) is -0.0364.

Take TGACGGCCTGTA: the binding signal (log2 normalized fluorescence) worked out at 0.0109.

Turning to TGACAGCGGGTA, the binding signal (log2 normalized fluorescence) is -0.0723.

As to TGAGAAAAGGTA, the binding signal (log2 normalized fluorescence) came to 0.0195.

Turning to TGAACCCTGGTA, the binding signal (log2 normalized fluorescence) was determined as 0.00686.

Take TGACCGAAGGTA: the binding signal (log2 normalized fluorescence) was 0.0504.

For the sequence TGAATCCATGTA, the binding signal (log2 normalized fluorescence) was found to be 0.305.

For TGACCGTAGGTA, the binding signal (log2 normalized fluorescence) is -0.0788.

Take TGACTATGTGTA: the binding signal (log2 normalized fluorescence) turned out to be 0.079.

Regarding GCACACTTGGTA, the binding signal (log2 normalized fluorescence) was determined as 0.58.

TGAATGGAGGTA: the binding signal (log2 normalized fluorescence) was found to be 0.266.

For TGATAAAATGTA, the binding signal (log2 normalized fluorescence) was found to be 0.0256.

With TGACACGCCTTA, the binding signal (log2 normalized fluorescence) stood at 0.466.

For TGATATCGTGTA, the binding signal (log2 normalized fluorescence) amounted to 0.333.

With TGAACTATTGTA, the binding signal (log2 normalized fluorescence) was determined as 0.00865.

In the case of TGAGCCATTGTA, the binding signal (log2 normalized fluorescence) was -0.00154.

For the sequence TGAACACCAGTA, the binding signal (log2 normalized fluorescence) is 0.303.

Consider TGAAATGGGGTA, for which the binding signal (log2 normalized fluorescence) stood at 0.214.

As for TGAAGGTTCGTA, the binding signal (log2 normalized fluorescence) was -0.0599.

As for TGACGTTGGGTA, the binding signal (log2 normalized fluorescence) was found to be 0.144.

In the case of TGATTACGTGTA, the binding signal (log2 normalized fluorescence) is 0.187.

With TGAAGAGCAGTA, the binding signal (log2 normalized fluorescence) amounted to 0.0321.

Take TGACACGAGTTA: the binding signal (log2 normalized fluorescence) was determined as 0.553.

As to TGACCACCTGTA, the binding signal (log2 normalized fluorescence) stood at 0.421.

With TGAGCGCGAGTA, the binding signal (log2 normalized fluorescence) was found to be 0.375.

For the sequence TGAACGAGAGTA, the binding signal (log2 normalized fluorescence) worked out at 0.125.

For TGACCAGCTGTA, the binding signal (log2 normalized fluorescence) amounted to 0.185.

TGACCTAAAGTA: the binding signal (log2 normalized fluorescence) was 0.15.

Turning to TGAAATCAGGTA, the binding signal (log2 normalized fluorescence) was -0.123.

As for TGAATCTGAGTA, the binding signal (log2 normalized fluorescence) is -0.0604.

As to TGAGGTGTAGTA, the binding signal (log2 normalized fluorescence) is -0.131.

In the case of TGAGAAACAGTA, the binding signal (log2 normalized fluorescence) came out at 0.0392.

Consider TGACTTCTTGTA, for which the binding signal (log2 normalized fluorescence) was 0.0042.

With TGACGATCTGTA, the binding signal (log2 normalized fluorescence) stood at 0.00723.

Turning to TGATGCCCCGTA, the binding signal (log2 normalized fluorescence) is 0.0177.

For TGACATCTAGTA, the binding signal (log2 normalized fluorescence) was -0.109.

On to TGAGGGCGAGTA, for which the binding signal (log2 normalized fluorescence) came out at 0.166.

The record behind these values is publication PMC5515408.
